SMILES strings stand for the structures. The campaign covered roughly 52,000 compounds. About 1,700 (3.3%) were called active. No stated cut-off is given here; in the data, active means survival mostly below about 52% (no sharp cut-off); inactive means mostly above about 56%. This is one part of the list.

This assay deals with Wild type. Description: growth inhibition of S. aureus wild type versus tarO mutant, primary screen, teichoic acid synthesis inhibitors, RN4220, OD600 (AID 463173). Particulars: S. aureus RN4220 wild type/DeltatarO growth, OD600, 18 h, hits give low values, screened at 18.75 µg/mL (by protocol).
Consider `CCC(Sc1nc2ccccc2s1)C(=O)Nc1cc(C)on1` (stereo not given), for which the survival was inactive: 104%. In the case of `Cc1nn(C)c2c1c(C(F)(F)F)cc(=O)n2CC(=O)Nc1ccc(F)cc1F`, the survival was inactive: 126%. For the compound `Cc1nnc(N2CCC(C(=O)NC3CCC(C)CC3)CC2)c2nn(-c3ccc(Cl)cc3)c(C)c12` (stereo not given), the survival was inactive: 85%.

With `Cc1ccccc1NC(=O)CSc1nccn1C`, the survival was inactive: 75%. Then `Cc1cc(NCCN(C)C)c2ccccc2n1`, with inactive: 106%; and `Cc1cccc(N(C)C(=O)Cn2cnc3nc4c(cc3c2=O)CCCC4)c1`, with active: -1%; and `CC(C)c1ncc(C(O)c2cccc3ccccc23)n1C` (stereo not given), with inactive: 107%. Then `CC(CCc1ccccc1)NC(=O)CSc1n[nH]c(-c2ccccc2Cl)n1` (stereo not given), with inactive: 53%; and `Cc1cc(Cl)ccc1NC(=O)C1CCCN(c2nnc(C)c3c(C)n(-c4ccccc4)nc23)C1` (stereo not given), with inactive: 70%. Regarding `COc1cccc(CNC(=O)CCc2c(C)nn(-c3ccc(N4CCCC4)nn3)c2C)c1`, the survival is inactive: 78%. Turning to `Cc1cc(C)c(NC(=O)C(C)n2nc(C)c3sc4ccccc4c3c2=O)c(C)c1` (stereo not given), the survival was inactive: 83%.

For the compound `COc1cccc(N2CC(NC(=O)c3cccs3)CC2=O)c1` (stereo not given), the survival was inactive: 88%.

Turning to `Cc1ccc(OC(C)C(=O)N2CCN(CCc3ccccn3)CC2)cc1C` (stereo not given), the survival was inactive: 83%.

With `O=S(=O)(NCC(c1ccco1)S(=O)(=O)c1cccs1)c1ccccc1` (stereo not given), the survival was inactive: 78%. As for `COc1ccc(OC(=O)c2cn(-c3cccc(OC)c3)c(=O)c3ccccc23)cc1`, the survival was inactive: 74%.

`Cc1cc(F)ccc1NC(=O)C1CCCN(C(=O)c2cnn(-c3ccccc3)c2-n2cccc2)C1` (stereo not given): the survival was inactive: 85%. On to `Cc1cccc(OCC(=O)Nc2ccc3nc(SCc4ccccc4)sc3c2)c1`, for which the survival is inactive: 116%.

In the case of `Cc1nc2ccccc2n1CCc1nc2c3ccccc3nc(SCc3ccccc3F)n2n1`, the survival was inactive: 66%.

In the case of `CCCc1nnc(NC(=O)CSc2nnc3c4ccccc4n(CC)c3n2)s1`, the survival is inactive: 88%. For the compound `CCc1ccc(CNC(=O)c2ccc(Cn3c(=O)c4cccn4c4cccnc43)cc2)cc1`, the survival is inactive: 87%. For `CCc1cccc(C)c1NC(=O)c1cc(CN2CCCC2)on1`, the survival was inactive: 72%. Consider `CC(C)NC(=O)C1CCCN(S(=O)(=O)c2ccc3c(ccn3C)c2)C1` (stereo not given), for which the survival is inactive: 78%.

Turning to `Cc1ccc(OCCCC(=O)Nc2sc3c(c2C(N)=O)CCC(C)C3)cc1` (stereo not given), the survival is inactive: 148%. Turning to `COCCn1c(C)cc(O)c(C(c2cccc(F)c2)N2CCN(c3ccccc3)CC2)c1=O` (stereo not given), the survival is inactive: 78%. As for `CCOc1ccc(C(=O)N2CC(=O)Nc3ccc(F)cc3C2c2ccc(F)cc2)cc1` (stereo not given), the survival is inactive: 143%. Consider `COc1ccc(N(CC(=O)N2CCN(c3cccc(Cl)c3)CC2)S(=O)(=O)c2c(C)noc2C)cc1`, for which the survival is inactive: 84%. As to `COc1ccc(-c2oc3ncn4nc(COc5ccc(Cl)cc5)nc4c3c2-c2ccc(OC)cc2)cc1`, the survival is inactive: 79%.

`CCc1nnc2c(Nc3cc(OC)c(Cl)cc3OC)nc3ccccc3n12`: the survival was inactive: 94%. Turning to `CCCCc1nc(Cl)c(C#N)c2c1COC(C)(C)C2`, the survival is inactive: 115%. `O=C(Nc1ccc2oc(-c3cccc4c(Br)cccc34)nc2c1)c1cccc(Cl)c1`: the survival was inactive: 134%. As for `Cc1cc(C)cc(-n2ccn3cnnc3c2=O)c1`, the survival is inactive: 68%. Take `Cc1ccc(OCC(=O)OCc2cc(=O)n3nc(C4CC4)sc3n2)cc1C`: the survival was inactive: 82%.

Take `CCC(C(=O)NCCc1ccc(OC)c(OC)c1)n1nc(C)c2sc3ccccc3c2c1=O` (stereo not given): the survival was inactive: 79%. Take `O=C(NC1CCCC1)C(c1cccnc1)N(CCc1ccccc1)C(=O)c1ccco1` (stereo not given): the survival is inactive: 104%. As for `CC(C)(C)C1CCc2c(sc(NC(=O)c3cc(-c4ccc(F)cc4)on3)c2C#N)C1` (stereo not given), the survival is inactive: 134%. Consider `CCCN(c1ccccc1F)S(=O)(=O)c1cc(-c2cc(C)no2)ccc1C`, for which the survival was inactive: 71%. Then `CCc1ccc2occ(CC(=O)Nc3c(C(=O)c4ccc(F)cc4)oc4ccccc34)c2c1`, with inactive: 81%. Consider `COc1ccc(C)cc1NC(=O)Cn1c(=O)oc2cc(S(=O)(=O)N3CCCCCC3)ccc21`, for which the survival was inactive: 83%. Then `CSc1cccc(Nc2cc(C(=O)NC3CCCCC3)c3ccccc3n2)c1`, with inactive: 142%; and `CCCCCCSc1nc(N)c2c3c(sc2n1)CCCC3C` (stereo not given), with active: -2%. To `Cn1nc(-c2ccccc2)c(-c2ccccc2)c(C(=O)Nc2ccccc2C(N)=O)c1=O` belongs inactive: 110%. On to `Cc1cc(C)cc(N2C(=O)CSC23C(=O)N(CC(N)=O)c2ccccc23)c1` (stereo not given), for which the survival is inactive: 68%. `CN(C)c1ccc(-c2nc3ccc(Cl)cn3c2Nc2ccc3c(c2)OCCO3)cc1`: the survival was inactive: 138%.

For the compound `CCCN(CCC)c1cc(C)nc2nc(-c3ccc(C(C)(C)C)cc3)nn12`, the survival was inactive: 111%. With `Cc1ccc(C)c(N2CCN(C3(c4ccccc4)C(=O)c4ccccc4C3=O)CC2)c1`, the survival is inactive: 99%. Turning to `CCOCCCNC(=O)Cn1ncc2c([nH]c3ccc(C)cc32)c1=O`, the survival is inactive: 51%. To `COCCN(Cc1ccc(C)c(Br)c1)S(=O)(=O)c1ccc2[nH]c(=O)ccc2c1` belongs active: -3%; to `CCC(C)(C)NC(=O)Cn1c(-c2ccc(C)cc2)noc1=O`, inactive: 113%. For `CC(=O)N1CCc2cc(Br)cc(S(=O)(=O)CCC(=O)N3CCN(c4cccc(C)c4C)CC3)c21`, the survival was inactive: 77%. Turning to `CCOC(=O)c1ccc(NC(=O)c2cc(=O)c3ccc(C)c(C)c3o2)cc1`, the survival was inactive: 86%.

In the case of `CC1CCCCC1NC(=O)Cn1nnc(-c2ccc(N(C)C)cc2)n1` (stereo not given), the survival is inactive: 108%.

With `Cn1c(SCC(=O)N2CCCc3ccccc32)nnc1-c1ccccc1N`, the survival was inactive: 102%. Take `Cc1ccc(-n2ncc3c(Nc4ccc(Oc5ccccc5)cc4)ncnc32)cc1`: the survival is inactive: 74%. To `Cc1cc(=O)[nH]c(SCC(=O)OCc2ccccc2)c1C#N` belongs inactive: 109%. Regarding `CCc1ccccc1NC(=O)N1CCN(Cc2nc3ccc(C)cc3o2)CC1`, the survival was inactive: 69%. Turning to `CCSc1nnc(COc2ccccc2)n1CC`, the survival is inactive: 96%.

Turning to `Cc1cccc(N2CCN(C(=O)c3cc4ccc5cccnc5c4[nH]3)CC2)c1C`, the survival is inactive: 73%. Consider `Cc1c(C(=O)Nc2cccc(C(F)(F)F)c2)sc2nc3n(c(=O)c12)CCC3`, for which the survival is inactive: 74%. For the compound `Cc1cccc(Cn2cc3c(=O)n(CC(=O)Nc4cccc(C)c4C)nc-3c3cc(F)ccc32)c1`, the survival was inactive: 87%.

As for `CC(C)Cc1nn2c(=O)cc(COC(=O)c3cccc(NC(=O)c4ccccc4)c3)nc2s1`, the survival is inactive: 70%. Turning to `COc1ccc(NC(=O)c2cc(C3CC3)nc3c2c(C)nn3-c2ccccc2)c(OC)c1`, the survival is inactive: 32%. Consider `CCCN(CCC)CCNC(=O)c1cc2c(=O)oc3ccc(C)cc3c2s1`, for which the survival is inactive: 88%. For the compound `CCOCCCNC(=O)Cn1ncc2c([nH]c3ccccc32)c1=O`, the survival is inactive: 76%. Then `CCOc1ccc(/C=C/c2nc(C#N)c(NCc3ccc(OC)cc3)o2)cc1`, with inactive: 75%; and `Cc1noc(C)c1S(=O)(=O)N(CC(=O)Nc1ccc(C(F)(F)F)cc1)c1ccc(C(C)C)cc1`, with inactive: 85%. With `O=C1CC2(Oc3ccccc3O2)C(=O)NN1`, the survival was inactive: 119%. Consider `Clc1ccccc1CNCCCSc1nnnn1-c1ccccc1`, for which the survival is inactive: 84%. To `COC(=O)c1ccc(NC(=O)C(=O)NCCc2csc3nc(-c4ccccc4F)nn23)cc1` belongs inactive: 60%; to `O=C1C2C3C=CC(C3)C2C(=O)N1CCN1CCN(S(=O)(=O)c2ccc(Br)cc2)CC1` (stereo not given), inactive: 115%.

With `CCOC(=O)N1CCN(Cc2nc3cc(NC(=O)CC(C)C)ccc3n2C(C)C)CC1`, the survival was inactive: 92%.

Take `CCN(CC)S(=O)(=O)c1ccc2c(c1)N(CC(=O)Nc1cccc(C)c1C)C(=O)C1CCCN21` (stereo not given): the survival was active: -4%. As for `COc1cccc(-c2noc(-c3cc4ccccc4oc3=O)n2)c1OC`, the survival is inactive: 101%.

Take `O=C(NCc1ccc2c(c1)CCN2C(=O)c1ccc(F)cc1)c1c(F)cccc1F`: the survival is inactive: 87%. Then `COc1ccc(C)cc1NC(=O)CSc1ncc2c(n1)-c1ccc(Cl)cc1N(Cc1ccccc1)S2(=O)=O`, with inactive: 73%. Turning to `Nc1nonc1-c1nc2ccccc2n1CC(=O)Nc1cccc(C(F)(F)F)c1`, the survival is inactive: 120%. In the case of `Cc1ccc(NC(=O)CCN2C(=O)c3ccccc3Sc3ncccc32)cc1`, the survival is inactive: 76%. For `COc1cc(OC)c(NC(=O)C(CC(C)C)N2Cc3ccccc3C2=O)cc1Cl` (stereo not given), the survival was inactive: 124%.

On to `CCOc1ccccc1NC(=O)CSc1cn(CC(=O)N2CCCCCC2)c2ccccc12`, for which the survival is inactive: 93%.

Turning to `NC(=O)C1CCN(C(c2ccccc2)c2nnnn2Cc2ccccc2)CC1` (stereo not given), the survival is inactive: 104%. Turning to `CC1=C(C(=O)Nc2ccccc2)C(c2ccc(F)cc2)n2nc(SCc3cc(C)ccc3C)nc2N1` (stereo not given), the survival was inactive: 113%.

For `CCOC(=O)Cn1nnnc1C(CC)N(Cc1cccnc1)Cc1cc2cc(C)ccc2[nH]c1=O` (stereo not given), the survival is inactive: 112%. Take `CCOc1cccc2sc(NC(=O)CS(=O)(=O)c3ccc(C)cc3)nc12`: the survival is inactive: 72%. Regarding `CCOc1ccc(CCNC(=O)c2cnc3sc(N4CCCCC4)nn3c2=O)cc1`, the survival was inactive: 68%.

Turning to `COC(=O)Cc1c(C)nc2nc(-c3ccc(C)cc3)[nH]n2c1=O`, the survival is inactive: 89%. In the case of `COc1ccc(N2C(=O)CSC23C(=O)N(CC(N)=O)c2ccccc23)cc1` (stereo not given), the survival was inactive: 84%. To `CCN(Cc1ccccc1)S(=O)(=O)c1ccc(F)c(C(=O)Nc2cc(C(F)(F)F)ccc2Cl)c1` belongs active: -1%; to `CC(C)c1ccc(N2C(=O)N(Cc3ccccc3Cl)c3ccccc3S2(=O)=O)cc1`, inactive: 68%; to `COc1ccc(-n2c(=O)c3sc4ccccc4c3n(CC(=O)NC3CCCCC3)c2=O)cc1`, inactive: 88%.

For `O=C(Nc1cc(C(F)(F)F)ccc1Cl)c1cnn(-c2ccccc2)c1-n1cccc1`, the survival was active: -3%. To `COC(=O)c1ccc([C@H]2Nc3ccc(S(=O)(=O)Nc4cccc(C)c4)cc3[C@H]3C=CC[C@H]32)cc1` belongs inactive: 68%.

Source of the values: PubChem BioAssay AID463173 (ICCB-Longwood Screening Facility, Harvard Medical School, 2010).
